Test results as given in PubChem BioAssay AID886 (National Center for Advancing Translational Sciences (NCATS), 2007).
The campaign covered roughly 73,000 compounds. About 2,500 (3.4%) were called active. The inconclusive results got no clear call from the source; some entries with a clear call stand among them for comparison. Calls follow the shape of the dose curve; as a rule, active = well fitted inhibition curve with a large enough effect; inconclusive = small, poorly fitted or top-dose-only effect; inactive = no such curve, though single readings can be large or run the other way. Where the call is inconclusive, the potency comes from a doubtful curve fit.

The molecules below were run against 3-hydroxyacyl-CoA dehydrogenase type-2 (Homo sapiens) (UniProt Q99714) (assay: qHTS Assay for Inhibitors of HADH2 (Hydroxyacyl-Coenzyme A Dehydrogenase, Type II)). Settings: recombinant HADH2, NADH fluorescence, beta-hydroxybutyryl-CoA; activity change, negative = inhibition: at 57.1 µM (top of the series).
Sequence of UniProt Q99714 (Q99714 whole entry, looked up): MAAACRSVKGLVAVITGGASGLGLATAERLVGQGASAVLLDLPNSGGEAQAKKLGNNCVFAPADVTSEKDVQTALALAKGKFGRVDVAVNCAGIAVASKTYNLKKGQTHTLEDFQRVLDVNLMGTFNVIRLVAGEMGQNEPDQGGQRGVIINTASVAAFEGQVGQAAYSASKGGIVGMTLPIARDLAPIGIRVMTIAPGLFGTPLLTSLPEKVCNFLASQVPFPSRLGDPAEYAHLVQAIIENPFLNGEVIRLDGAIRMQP
Sequence of UniProt Q99714 (Q99714 whole entry, looked up): as above
Procedure, shortened: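 E. coli-expressed His-tagged HADH2 tested at 20 nM in alkaline Tris buffer (pH 9.0); oxidation of 90 uM beta-hydroxybutyryl-CoA with 1 mM NAD+ tracked fluorimetrically for 4 min.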
% is scaled to controls: 0 for no effect and ±100 for the full control effect; potency is read from the fitted curve at half-maximal effect; tags tell the direction and shape of the fitted curve.
Also: nearly all actives have a fitted effect of over 60% in size.

Row | SMILES | activity change, negative = inhibition | Potency
1 | Cc1nn(C)cc1CNC(=O)c1cnn2c(C(F)F)cc(C3CC3)nc12 | inactive: 2.73% | 
2 | Cn1cccc1C(=O)Nc1nc(-c2ccccn2)cs1 |  | active: 6.31 µM
3 | COC(=O)c1[nH]c2ccc(F)cc2c1NC(=O)CCN1CCN(Cc2ccc3c(c2)OCO3)CC1 |  | inconclusive: 39.8 µM [inhibitor, single point]
4 | CCOC(=O)Cn1cnc2c(cnn2-c2ccc(Cl)cc2)c1=O | inactive: 6.74% | 
5 | C#CCOc1nc(OCC#C)nc(OCC#C)n1 |  | inconclusive: 3.98 µM [inhibitor, single point]
6 | CCC(C)NC(=O)c1ccccc1NS(=O)(=O)c1ccc(OC)c(OC)c1 (configuration not stated) |  | inconclusive: 25.1 µM [inhibitor, single point]
7 | COC(=O)c1[nH]c2ccc(Cl)cc2c1NC(=O)CCN1CCOCC1 |  | inconclusive: 39.8 µM [inhibitor, single point]
8 | O=C(COC(=O)CCC(=O)c1cccs1)NCc1ccco1 |  | inconclusive: 31.6 µM [inhibitor, single point]
9 | NC(=O)CSc1nnc(C2CC2)n1Cc1ccccc1 |  | inconclusive: 39.8 µM [inhibitor, single point]
10 | Oc1c(C(c2cccs2)N2CCOCC2)sc2ncnn12 (configuration not stated) |  | inconclusive: 25.1 µM [inhibitor, partial curve]
11 | Cc1ccccc1-c1nc(Nc2ccncc2)c2ccccc2n1 |  | inconclusive: 20 µM [inhibitor, single point]
12 | CC(=O)c1c(C)oc2ccc(NS(=O)(=O)c3ccc(O)c(C(=O)O)c3)cc12 |  | inconclusive: 31.6 µM [inhibitor, single point]
13 | Nc1cc(Cl)c(NC2=NCCN2)c(Cl)c1 |  | inconclusive: 1.26 µM [inhibitor, full curve]
14 | CC(=O)Nc1cccc(-c2csc(NCc3ccco3)n2)c1 |  | inconclusive: 0.0398 µM [inhibitor, full curve, poor fit]
15 | COc1ccc(C)cc1NC(=O)C1CCCN1C(=O)OCc1ccccc1 (configuration not stated) | inactive: 4.76% | 
16 | CCOC(=O)c1sc2cccc(F)c2c1N |  | active: 31.6 µM
17 | CCOC(=O)C1CCCN(C(=O)CSc2nccn2C)C1 (configuration not stated) | inactive: 6.2% | 
18 | Cc1c(NC(=O)Nc2ccccc2Cl)sc(=S)n1C |  | inconclusive: 39.8 µM [inhibitor, single point]
19 | CCc1nc(N2CCCC(C)C2)c2oc3ccccc3c2n1 (configuration not stated) |  | inconclusive: 39.8 µM [inhibitor, partial curve, poor fit]
20 | CCOC(=O)N1CCN(C(=O)c2cc3c(=O)[nH]c4ccccc4c3s2)CC1 |  | inconclusive: 31.6 µM [inhibitor, single point]
21 | Cc1nc2ccccc2n1CC(=O)NCCN1CCCC1 | inactive: -5.77% | 
22 | CCCc1[nH]nc2c1C(c1ccc(Br)s1)C(C#N)=C(N)O2 (configuration not stated) |  | active: 10 µM
23 | NC(=O)C1CCCNC1 (configuration not stated) | inactive: 0.477% | 
24 | CCc1nc(SCC(=O)Nc2ccnc3ccccc23)n[nH]1 |  | inconclusive: 25.1 µM [inhibitor, single point]

Row | SMILES | activity change, negative = inhibition | Potency
25 | CC1CCN(c2nc3c(c(=O)[nH]c(=O)n3C)n2Cc2ccccc2Cl)CC1 | inactive: 7.3% | 
26 | CCC1(COC(NC(=O)c2cccnc2)(C(F)(F)F)C(F)(F)F)COC1 |  | inconclusive: 6.31 µM [inhibitor, single point]
27 | COc1ccc(-c2cc(C(F)(F)F)nc(SCC(N)=O)n2)cc1 |  | active: 31.6 µM
28 | Cc1cc(NC(=O)Cn2cc(C(F)(F)F)cc(Cl)c2=O)no1 | inactive: 10.9% | 
29 | COc1ccc(F)cc1S(=O)(=O)Nc1ccc2c(c1)OCO2 |  | inconclusive: 25.1 µM [inhibitor, single point]
30 | COc1cc2c(cc1NC(=O)COC(=O)C1CC(=O)N(Cc3ccco3)C1)oc1ccccc12 (configuration not stated) |  | inconclusive: 31.6 µM [inhibitor, single point]
31 | COc1ccc(C2C(C(C)=O)=C(C)N=c3s/c(=C\c4ccco4)c(=O)n32)c(OC)c1 (configuration not stated) |  | inconclusive: 39.8 µM [inhibitor, single point]
32 | Cc1cccn2cc(-c3ccccc3)nc12 |  | inconclusive: 39.8 µM [inhibitor, single point]
33 | Cn1c(=O)c(-c2ccccc2)nc2cnc(N3CCOCC3)nc21 | inactive: 19.2% | 
34 | COc1ccccc1NC(=O)C1=C(C)NC(SCC(=O)c2ccccc2)=C(C#N)C1c1ccco1 (configuration not stated) |  | inconclusive: 39.8 µM [inhibitor, single point]
35 | COC(=O)C1=C(N)Oc2cc(C)n(CC3CCCO3)c(=O)c2C1c1ccc(Cl)cc1 (configuration not stated) | inactive: -8.85% | 
36 | CCOC(=O)Cc1c(C)nc2c(-c3ccc(Cl)cc3)c[nH]n2c1=O |  | active: 20 µM
37 | Cc1ccc2nc3c(cc2c1)CN(Cc1ccco1)C(=NCC1CCCO1)S3 (configuration not stated) |  | inconclusive: 20 µM [inhibitor, single point]
38 | COc1ncc2nc(-c3ccccc3)c(=O)n(C3CC3)c2n1 |  | inconclusive: 31.6 µM [inhibitor, single point]
39 | O=c1c2c3nc4ccccc4nc3n(Cc3ccccc3)c2ncn1Cc1ccco1 |  | inconclusive: 10 µM [inhibitor, partial curve]
40 | Cc1ccc(S(=O)(=O)Oc2ccc(N=Nc3ccc(-c4ccc(N=Nc5c(O)ccc6cc(S(=O)(=O)O)cc(S(=O)(=O)O)c56)c(C)c4)cc3C)cc2)cc1 |  | active: 1.26 µM
41 | CCOC(=O)Cc1c(C)c2c(O)cc(O)cc2oc1=O |  | active: 31.6 µM
42 | Cc1cc(NC(=O)CSc2nc3c(c(-c4cccnc4)c2C#N)CCC3)no1 | inactive: 6.58% [at 11.4 µM] | 
43 | Cc1nc(NCc2ccccc2)c2nc(-c3ccccc3)n(CCCN(C)C)c2n1 |  | inconclusive: 39.8 µM [inhibitor, single point]
44 | CCCC(=O)Nc1ncnc2c1ncn2[C@@H]1O[C@H]2COP(=O)(O)O[C@@H]2[C@@H]1OC(=O)CCC | inactive: 2.47% [at 25.6 µM] | 
45 | C=C(Cl)COc1ccc2c(C)cc(=O)oc2c1 |  | inconclusive: 7.94 µM [inhibitor, single point]
46 | Cc1cccc(-n2c(SCc3cc(=O)n4ccsc4n3)nc3ccccc32)c1 |  | inconclusive: 12.6 µM [inhibitor, partial curve]
47 | CCCCOc1ccc(N2C(=O)CC(N(O)c3ccccc3)C2=O)cc1 (configuration not stated) |  | inconclusive: 31.6 µM [inhibitor, single point]
